The campaign covered roughly 360,000 compounds. About 25,000 (6.9%) were called active. Inconclusive results, whose numbers are uncertain, are shown with a selection of clear calls. The call rests on the fitted dose curve; in most records, active means well fitted inhibition curve with a large enough effect; inconclusive means small, poorly fitted or top-dose-only effect; inactive means flat fitted curve, though single readings scatter. Where the call is inconclusive, the potency comes from a doubtful curve fit.
target: Luciferin 4-monooxygenase (Photinus pyralis) (UniProt P08659); assay: qHTS profiling assay for firefly luciferase inhibitor/activator using purifed enzyme and Km concentrations of substrates (counterscreen for miR-21 project); settings: purified FLuc, luminescence inhibition; series mostly up to 57.5 µM; further: nearly all actives have a fitted effect of over 55% in size
How it was run: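 Purified P. pyralis luciferase (10nM final) with 10uM D-luciferin and 10uM ATP (Km levels) in 50mM Tris acetate pH 7.5, 10mM Mg acetate, 0.01% Tween-20, 0.05% BSA; qHTS 6-point titration, ~60 µM downward; luminescence read.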
Potency means the concentration at half of the fitted maximal effect; tags describe the fitted curve by direction and shape.

Chain of UniProt P08659 (P08659 whole entry, looked up): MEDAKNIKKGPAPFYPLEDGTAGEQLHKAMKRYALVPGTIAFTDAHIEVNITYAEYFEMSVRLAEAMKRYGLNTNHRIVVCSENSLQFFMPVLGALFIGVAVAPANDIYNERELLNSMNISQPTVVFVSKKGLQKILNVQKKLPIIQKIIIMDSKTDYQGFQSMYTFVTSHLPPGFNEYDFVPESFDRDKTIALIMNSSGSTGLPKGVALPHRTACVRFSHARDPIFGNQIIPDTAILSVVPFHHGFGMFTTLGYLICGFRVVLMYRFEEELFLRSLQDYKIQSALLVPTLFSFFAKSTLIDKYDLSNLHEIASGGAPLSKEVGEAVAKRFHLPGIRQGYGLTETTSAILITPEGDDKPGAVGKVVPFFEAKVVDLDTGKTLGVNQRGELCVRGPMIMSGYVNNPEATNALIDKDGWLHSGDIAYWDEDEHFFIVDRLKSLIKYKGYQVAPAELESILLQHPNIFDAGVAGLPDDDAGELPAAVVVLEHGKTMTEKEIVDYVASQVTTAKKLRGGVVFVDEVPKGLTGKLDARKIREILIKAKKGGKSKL

Row | Structure (SMILES) | Potency
1 | CCCCNC(=O)C1CCN(Cc2ccc(OCc3ccccc3)c(OC)c2)CC1 | inconclusive: 26.9 µM [inhibitor, single point]
2 | CC(C)(C)C(=O)CNS(=O)(=O)c1ccc(S(=O)(=O)NC2CC2)cc1 | inactive
3 | COc1ccc(S(=O)(=O)NNc2nc(C)cc(C)n2)cc1Br | inconclusive: 26.9 µM [inhibitor, partial curve, poor fit]
4 | CCOc1ccc2nc(N3CCN(C(=O)CS(=O)(=O)c4ccc(F)cc4)CC3)sc2c1 | active: 3.01 µM
5 | CCn1c(SCc2nc3ccccc3s2)nnc1-c1ccccc1 | active: 15.1 µM
6 | Cc1ccc(NC(=O)C2CCCN(C(=O)c3ccc(Cl)cc3)C2)cc1 (configuration not stated) | inconclusive: 19 µM [inhibitor, partial curve, poor fit]
7 | N#Cc1c(NC(=S)NC(=O)c2ccccc2)sc2c1CCCC2 | inconclusive: 7.57 µM [inhibitor, full curve]
8 | Cc1cccc(-c2nc(SCCCOc3ccccc3Cl)n3[nH]c(=O)cc3n2)c1 | active: 6.75 µM
9 | Cc1cc(N2CCN(c3ccccc3Cl)CC2)n2cc(-c3ccccc3)nc2n1 | inconclusive: 15.1 µM [inhibitor, partial curve]
10 | COC(=O)c1sc(NC(=S)NNC(=O)c2c(Br)c(C)nn2C)c(C(=O)OC)c1C | inconclusive: 23.9 µM [inhibitor, partial curve, poor fit]
11 | NC(=O)C1CCN(C(=O)COc2ccc3c(c2)oc(=O)c2ccccc23)CC1 | inconclusive: 37.9 µM [inhibitor, single point]
12 | Cc1ccc(NCc2cccn2-c2nnc(N3CCCCCC3)s2)cc1 | inconclusive: 23.9 µM [inhibitor, partial curve, poor fit]
13 | Cc1ccc(CNc2cnccn2)cc1 | inconclusive: 21.3 µM [inhibitor, partial curve, poor fit]
14 | O=C(NC1CCCC1)c1cc(-c2ccccc2)nc2ccccc12 | inconclusive: 30.1 µM [inhibitor, partial curve, poor fit]
15 | Cc1ccc(NC(=O)CN2C(=O)S/C(=C\c3cc(C)n(-c4ccc(C(=O)O)cc4)c3C)C2=O)cc1 | inconclusive: 37.9 µM [inhibitor, partial curve, poor fit]
16 | CCCCCOCC1CC(C/C(C)=N/Nc2nc(-c3ccccc3)cs2)C(=O)O1 (configuration not stated) | inconclusive: 26.9 µM [inhibitor, partial curve, poor fit]
17 | C/C(=N/NC(=O)c1cc(-c2ccc(Br)s2)[nH]n1)c1ccco1 | active: 23.9 µM
18 | COc1ccc(NC(=O)Cn2c(SCc3cccc(Cl)c3)nc3ccncc32)c(OC)c1OC | inconclusive: 26.9 µM [inhibitor, partial curve, poor fit]
19 | CCn1c(CCNC(=O)c2cccs2)nnc1SCC(=O)Nc1nc(-c2ccccc2)cs1 | inconclusive: 30.1 µM [inhibitor, single point]
20 | FC(F)(F)c1ccc(-c2csc(-c3ccno3)n2)cc1 | active: 26.9 µM
21 | O=C(Cn1nnc(-c2ccc3c(c2)OCO3)n1)NCc1ccccc1 | inconclusive: 0.0095 µM [inhibitor, partial curve, poor fit]
22 | Cc1ccc(OCC(=O)c2ccc3c(c2)CCCC3)cc1C | active: 9.53 µM
23 | Oc1c(C(c2ccccc2)N2CCN(Cc3ccccc3)CC2)sc2nc(-c3ccco3)nn12 (configuration not stated) | inconclusive: 23.9 µM [inhibitor, partial curve, poor fit]
24 | COc1ccc(C(CC(=O)O)NC(=O)COc2cc(C)ccc2C)cc1OC (configuration not stated) | inconclusive: 30.1 µM [inhibitor, partial curve, poor fit]

Row | Structure (SMILES) | Potency
25 | COc1ccc(C)cc1NC(=O)c1ccccc1NS(=O)(=O)c1cccc2cccnc12 | inactive
26 | COC(=O)c1c(N)c2ccccc2[nH]c1=O | inactive
27 | CCOc1ccc(NC(=O)CSc2nc(=O)n(Cc3cccnc3)c3c2CCC3)cc1 | inactive
28 | O=c1[nH]n2c(C(F)(F)F)cc(C3CC3)nc2c1N=Nc1ccccc1 | inconclusive: 10.7 µM [inhibitor, partial curve]
29 | CCOC(=O)C1CCN(C(=O)c2cn(-c3ccccc3)nc2-c2cccnc2)CC1 | active: 13.5 µM
30 | CCc1ccc(NC(=O)CC2C(=O)N(c3cccc(C)c3)C(=O)N2Cc2cccs2)cc1 (configuration not stated) | inconclusive: 30.1 µM [inhibitor, partial curve, poor fit]
31 | CCOC(=O)c1cccc(NC(=O)c2ccc3c(c2)C(=O)N(CC2CCCO2)C3=O)c1 (configuration not stated) | inconclusive: 19 µM [inhibitor, single point]
32 | Cn1c(Cl)c(/C=N/OC(=O)c2ccc(Cl)cc2)c2ccccc21 | active: 3.38 µM
33 | Cc1ccc(-c2cc(C(=O)N3CC(C)CC(C)C3)c3ccccc3n2)o1 (configuration not stated) | active: 12 µM
34 | Brc1ccc(-c2nc(-c3ccccc3)no2)o1 | active: 12 µM
35 | CCOc1ccc(CCNC(=O)c2cccc(S(=O)(=O)N3CCCCC3)c2)cc1OCC | inactive
36 | CC(=O)c1ccc(NC(=O)c2ccc(CSc3ccccc3)o2)cc1 | inconclusive: 23.9 µM [inhibitor, single point]
37 | COc1cc(C=C2C(=O)c3ccccc3C2=O)ccc1O | active: 3.01 µM
38 | O=C(CSC1=NCCS1)Nc1ccc2ccccc2c1 | active: 16.9 µM
39 | COc1ccc(NC(=O)c2cc(-c3cc(OC)c(OC)c(OC)c3)nc3ccccc23)cc1OC | inconclusive: 26.9 µM [inhibitor, single point]
40 | CC(C)(C)c1ccc(O)c(N=Cc2cc(Br)ccc2O)c1 | inconclusive: 37.9 µM [inhibitor, single point]
41 | CCCCC(=O)Nc1cccc(-c2nc3ncccc3o2)c1 | inactive
42 | O=C(NCCN1CCOCC1)c1cc(-c2ccccc2Cl)on1 | inconclusive: 37.9 µM [inhibitor, single point]
43 | CS(=O)(=O)c1ccc2nc(NC(=O)CS(=O)(=O)c3ccc(Cl)cc3)sc2c1 | inconclusive: 21.3 µM [inhibitor, partial curve]
44 | O=C(N/N=C/c1cn(Cc2ccccc2)c2ccccc12)c1cc(O)cc(O)c1 | active: 23.9 µM
45 | CCn1nc(NS(=O)(=O)c2ccccc2)c2cc3cc(C)ccc3nc21 | active: 15.1 µM
46 | Cc1cc(C)n(CC(=O)NC2CCCCC2C)c(=O)c1C#N (configuration not stated) | inactive
47 | Cn1c(=S)[nH]c2c(c1=O)C(C)(C)Cc1ccccc1-2 | inconclusive: 13.5 µM [inhibitor, partial curve]
48 | Cc1nnc(NC(=O)CN2CC(C)OC(C)C2)s1 (configuration not stated) | inactive

Row | Structure (SMILES) | Potency
49 | COc1ccc2cc(CCC(C)=O)ccc2c1 | inconclusive: 23.9 µM [inhibitor, partial curve]
50 | O=C(O)c1ccc(COc2ccc3ccccc3c2)o1 | active: 19 µM
51 | S=c1[nH]nc(C2CCCCC2)n1/N=C/c1ccncc1 | inactive
52 | Cc1ccc(CC(=O)Nc2nc3c(s2)CCCC3)cc1 | inconclusive: 37.9 µM [inhibitor, single point]
53 | COc1ccc(S(=O)(=O)N(Cc2nc(-c3ccc(C)cc3)no2)C2CCCCC2)cc1 | inactive
54 | CC(C)(C)c1ccc(C(=O)NNC(=O)c2cccc(-n3cnnn3)c2)cc1 | inconclusive: 23.9 µM [inhibitor, single point]
55 | O=C1[C@@H]2CSC(c3ccc(F)cc3)N2C(=O)N1c1ccc(Cl)cc1 (some centres not stated) | inactive
56 | COc1cc(/C=N/Nc2ccccn2)ccc1O | active: 6.01 µM
57 | Cc1ccc2oc(=O)c(/C=C(\O)c3sc(C)nc3C)nc2c1 | inconclusive: 15.1 µM [inhibitor, partial curve]
58 | Brc1ccc(CSc2ncn[nH]2)cc1 | inactive
59 | COc1cccc(OC)c1-c1nn2c(-c3cc(-c4ccccc4)n[nH]3)nnc2s1 | inconclusive: 12 µM [inhibitor, partial curve, poor fit]
60 | COc1ccc(-c2nnc(-c3cc4ccccc4oc3=O)o2)cc1 | inactive
61 | Cc1ccc(COc2ccsc2C(=O)NN)cc1 | inconclusive: 30.1 µM [inhibitor, partial curve, poor fit]
62 | CC(NC(=O)c1ccc2c(c1)OCO2)c1ccccc1 (configuration not stated) | inconclusive: 23.9 µM [inhibitor, partial curve]
63 | O=C(c1cccc(Cl)c1)n1nc(-c2ccco2)nc1NCc1cccs1 | inactive
64 | COc1cccc(NC(=O)c2ccc3c(O)c(S(=O)(=O)c4ccccc4)c(=O)[nH]c3c2)c1 | active: 19 µM
65 | N#CCSc1nccc(/C=C/c2ccccc2)n1 | inconclusive: 37.9 µM [inhibitor, partial curve, poor fit]
66 | CCc1cc(C(=O)Cc2nc3ccccc3[nH]2)c(O)cc1O | inconclusive: 37.9 µM [inhibitor, partial curve, poor fit]
67 | Brc1csc(CN2CCc3nc(Nc4ccccc4)ncc3C2)c1 | inconclusive: 30.1 µM [inhibitor, partial curve, poor fit]
68 | COc1ccc(-n2c(CNC(=O)COc3ccc(Cl)cc3Cl)n[nH]c2=S)cc1 | inconclusive: 23.9 µM [inhibitor, partial curve, poor fit]
69 | C(=N\Nc1ccccn1)/c1cccnc1 | inconclusive: 37.9 µM [inhibitor, single point]
70 | CC(C)Nc1ccc(-n2nc3ccccc3[n+]2[O-])cc1 | active: 1.9 µM
71 | Nc1c(SCCC(=O)O)ccc2c1C(=O)c1ccccc1C2=O | inconclusive: 37.9 µM [inhibitor, single point]
72 | Cc1cccc(Cn2c(SCc3ccc(C(=O)N4CCCCCC4)cc3)nc3ccncc32)c1 | inconclusive: 26.9 µM [inhibitor, partial curve]

Reference: PubChem BioAssay AID588342 (National Center for Advancing Translational Sciences (NCATS), 2011)
